Assay results reported in PubChem BioAssay AID1159614 (National Center for Advancing Translational Sciences (NCATS), 2016).
The campaign covered roughly 45,000 compounds. About 65 (0.1%) were called active. Calls follow the shape of the dose curve; as a rule, active = well fitted activation curve with a large enough effect; inconclusive = small, poorly fitted or top-dose-only effect; inactive = no such curve, though single readings can be large or run the other way. The list shows a part of the results.

Each compound was assayed against Galactocerebrosidase (Homo sapiens) (UniProt P54803) (assay: A Novel Cell-Based Assay to Identify Small Molecules for B -Galactocerebrosidase). Conditions: 145M-Twi-hGALC-G270D cells (Twitcher mouse brain line with human GALC G270D), HMU-beta-Gal fluorescence, 48 h; series mostly up to 57.5 µM; activation: at the top concentration.
UniProt P54803, sequence (P54803 whole entry, looked up): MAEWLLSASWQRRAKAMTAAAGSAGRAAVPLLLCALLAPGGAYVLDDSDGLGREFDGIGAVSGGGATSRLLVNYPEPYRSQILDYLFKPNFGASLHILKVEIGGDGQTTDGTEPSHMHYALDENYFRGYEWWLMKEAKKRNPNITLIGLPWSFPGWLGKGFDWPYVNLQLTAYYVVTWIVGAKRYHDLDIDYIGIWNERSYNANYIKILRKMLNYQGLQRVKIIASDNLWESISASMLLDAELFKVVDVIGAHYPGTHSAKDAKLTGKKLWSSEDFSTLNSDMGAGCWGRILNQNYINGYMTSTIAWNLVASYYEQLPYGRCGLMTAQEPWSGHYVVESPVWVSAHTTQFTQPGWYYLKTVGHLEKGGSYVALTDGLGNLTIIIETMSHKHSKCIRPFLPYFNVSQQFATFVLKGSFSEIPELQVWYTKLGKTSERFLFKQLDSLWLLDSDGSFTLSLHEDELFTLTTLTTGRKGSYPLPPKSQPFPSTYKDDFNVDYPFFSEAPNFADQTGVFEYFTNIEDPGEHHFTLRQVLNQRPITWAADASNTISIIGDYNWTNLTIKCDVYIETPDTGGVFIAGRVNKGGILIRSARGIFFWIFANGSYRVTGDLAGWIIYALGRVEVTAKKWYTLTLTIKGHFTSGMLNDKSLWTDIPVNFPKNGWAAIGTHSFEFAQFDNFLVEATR
Source text: Lysosomal storage diseases (LSDs) are caused by genetic mutations in genes encoding proteins important for normal lysosomal function. Globoid cell leukodystrophy (GLD), mostly known as Krabbe disease, is a prototype of the neurological LSDs caused by deficiency of beta-galactocerebrosidase (GALC). In brain specimens of GLD patients, psychosine levels are substantially elevated. At elevated concentrations, psychosine becomes cytotoxic to neuronal cells, particularly to oligodendrocytes (OLG), neural cells responsible for myelin formation. Therefore, the biochemical disturbances in GLD are manifested by different degrees of brain demyelination resulting in a broad spectrum of neurological manifestations. Most of the FDA-approved therapies are based on enzyme replacement therapeutic (ERT) agents, which treat non-neurological symptoms of Gaucher disease, Fabry disease, few mucopolysaccharidoses and Pompe disease. Unfortunately, in GLD, a primarily neurological LSD, ERT agents, as large molecular weight molecules unable to cross the blood-brain barrier, which makes this an inefficacious therapeutic approach. In GLD, increasing the residual GALC activity just above the critical threshold (~10% of wild type enzymatic activity), the cytotoxic levels of psychosine will be reduced, avoiding the OLGs apoptosis and the subsequent demyelination process. This will translate in disease stabilization and amelioration of GLD patient symptoms.
A cell-based assay in 1,536-well plate format was developed to implement a quantitative high-throughput screening (qHTS) assay using GLD-disease relevant cells to identify small molecules that produce enhancements of the residual enzymatic activity levels of mutants GALC found and prevalent in GLD patients. Compounds that are active may therefore have some therapeutic application for GLD. After the treatment of live cells for a determined period, using a fluorescent GALC specific substrate, the mutant residual GALC activity is measured. This cell-based qTHS assay was used to screen part of the MLPCN library for small molecule able to increase the mutant GALC enzymatic activity. In this assay, increased fluorescent signal corresponds to enhanced levels of mutant GALC residual enzymatic activity. Activation is the desired outcome for this assay.
NIH Chemical Genomics Center [NCGC]
NIH Molecular Libraries Probe Centers Network [MLPCN]
Assay Submitter (PI): Gustavo Maegawa MD,PhD, University of Florida, Gainesville, FL
2)#Two cell lines were established for the assay: 145M-Twi-hGALC-G270D (brain-derived Twitcher cell line stably expressing human GALC-G270D) and 145M-Twi-hGALC-WT (same 145M-Twi stably expressing human GALC wild type). The Twitcher is the murine C57B/6 model for GLD with naturally occurring homozygous nonsense GALC mutation. The 145M-Twi cell line was established at Maegawa lab (Ribbens J et al 2014).
a.#Media: DMEM/F12 (1:1) with 10% fetal bovine-serum (FBS) with penicillin/streptomycin (PS-1X - 100 I.U./mL of penicillin+100 ug/mL of streptomycin).
b.#The 6-Hexadecanoylamino-4-methylumbelliferyl-b-D-galactoside (HMU-B-gal) substrate was prepared as per Wiederschain et al 1992. Using 20-mL borosilicate tubes, 2.20 mg of HMU-b-Gal was added in each tube to prepare substrate-film with a final air-nitrogen stream evaporation to remove all diluent solvents.
c.#The HMUb-Gal substrate buffer consists of 0.2 M Na2HPO4 (sodium phosphate dibasic)/ 0.1 M Citric Acid with the pH adjusted to 5.2 using HCl. Sodium Azide at 0.02% and Sodium Taurocholate (NaTC) at 1 mg/mL were added to this substrate buffer.
d.#The HMU-b-Gal stopping buffer consist of 0.5 M NaHCO3 (sodium bicarbonate) /0.5 M Na2CO3 (sodium carbonate). […] Triton X-100 at 0.25% was added.
4)#Preparation of HMU-b-Gal substrate tubes
Adding 18.6 mL of the HMUb-Gal substrate buffer to each 20-mL tube (2.20 mg of HMU-b-Gal) will reach a concentration of 0.2 mM. Vortex well the tube until the solution is fully homogenized (clear cloudy solution). […]
Also: 0% is about no effect; nearly all actives have a fitted effect of over 65% in size.

activation, inactive:
COc1ccc(CCNC(=O)c2cc3cccc4c3n2CC(C)S4)c(OC)c1OC (stereo unspecified) -2.07%
CC(C)(C)OC(=O)N1CCC(c2c(C(=O)O)cnn2-c2ccc(F)cc2F)CC1 -9.41%
O=C(CN1C(=O)COc2ccc(S(=O)(=O)N3CCCCCC3)cc21)N1CCN(c2cccc(Cl)c2)CC1 -3.13%
COc1ccc(C(=O)c2cn(Cc3ccc(F)cc3)c3c(F)cc(F)cc3c2=O)cc1 -14.6%
Fc1ccc(-c2nnc(CN3CCN(c4ccccn4)CC3)o2)cc1 -12.2%
O=C(C1COc2cc(S(=O)(=O)Nc3ccc(Cl)cc3)ccc2O1)N1CCCC1 (stereo unspecified) -12.8%
CCc1ccc(S(=O)(=O)c2nnn3c2nc(N2CCN(CC)CC2)c2sccc23)cc1 -13.7%
CCC[C@H](N[C@@H](C)C(=O)N1[C@H](C(=O)O)C[C@@H]2CCCC[C@@H]21)C(=O)OCC -14.5%
COc1ccccc1C(=O)Nc1ccc(-c2nc3cc(C)cc(C)c3o2)cc1 -7.56%
CCOC(=O)c1ccc(N2C(=O)c3n[nH]c(-c4ccco4)c3C2c2cccc(F)c2)cc1 (stereo unspecified) -13.5%
Cc1ccc(NC(=O)CSc2nc3ccc(NC(=O)c4cccc(Cl)c4)cc3s2)c(C)c1 -7.41%
Cc1ccc(Cn2c(C)c(CNCc3ccccc3F)c(C(=O)O)c2C)cc1 -10.8%
CCc1ccccc1N(C)C(=O)c1cc2c(s1)-c1c(C)cccc1OC2 -13.5%
COc1cc(C2C(C(=O)Nc3ccccc3)=C(C)Nc3nc(SCC(=O)c4ccc(C)cc4)nn32)ccc1O (stereo unspecified) -12.3%
CC(C)NS(=O)(=O)c1ccc(OCC(=O)N2CCN(c3cccc(Cl)c3)CC2)cc1 -30.6%
O=C(Cn1ncc2c3ccccc3n(Cc3ccccc3)c2c1=O)NCc1ccccc1 -16.9%
COc1ccc(-c2nc3c(c(SCC(=O)Nc4cc(C)cc(C)c4)n2)Cc2c(CO)cnc(C)c2O3)cc1 -7.53%
COc1cccc(CN2C(=O)C3(SCC(=O)N3c3ccc(F)cc3)c3ccccc32)c1 (stereo unspecified) -13.7%
Cc1ccc(CN(Cc2cccn2-c2nnc(N3CCCC3=O)s2)C(=O)Nc2cc(C)cc(C)c2)cc1 -1.02%
O=C(C1CCCN(S(=O)(=O)c2cccs2)C1)N1CCN(c2ccccc2F)CC1 (stereo unspecified) -15.4%
CN1C(=O)c2ccccc2Sc2ccc(NC(=O)NCc3ccccc3Br)cc21 -15%
Cc1nc2sc(C)c(C)n2c(=O)c1S(=O)(=O)NCCc1ccc(Cl)cc1 -1.19%
CC(=O)c1ccc(NC(=O)c2cn(C)c(=O)c3ccccc23)cc1 21.2%
O=C(NCc1cccc(Cl)c1)c1ccc2c(c1)nc1n2CCOC1 -0.473%
Cc1ccc(CN(Cc2ccco2)C(=O)c2ccccc2Cl)o1 -11.5%
Cc1cccc(C(=O)Nc2nc3c(s2)CCCC3)c1 -20.9%
COc1ccc(-c2nc(CCNC(=O)Cc3ccc(F)cc3)cs2)cc1 1.28%
Nc1ccc(C(=O)NCC(=O)O)cc1 -11.1%
COc1ccc(NS(=O)(=O)c2ccc(N)cc2)nn1 -6.9%
CCOC(=O)N1CCc2c(sc3c2c(=O)n(CCc2ccccc2)c(=O)n3Cc2ccc(C)cc2C)C1 -7.1%
c1ccc(CNc2ncnc3[nH]ncc23)cc1 -20.7%
O=C(NC1CC(=O)N(c2ccccc2)C1)c1cccs1 (stereo unspecified) -8.81%
Cc1cccc(N2CCN(C(=O)CCNS(=O)(=O)c3ccc4c(c3)CCN4C(=O)C3CC3)CC2C)c1 (stereo unspecified) -41.2%
CCc1ccccc1NC(=O)N1CC(CC)Oc2ccc(Cl)cc21 (stereo unspecified) -11.1%
COc1ccc(N2CCN(C(=O)c3c(C)nn(-c4ccc(F)cc4)c3-n3cccc3)CC2)cc1 -37.2%
CSc1ccc(CCNC(=O)c2ccc3c(c2)nc2n3CCC(C)C2)cc1 (stereo unspecified) -19.9%
CCOCCc1nn2c(=O)cc(COC(=O)c3ccccc3NC(=O)c3cccs3)nc2s1 -6.91%
CCN1C(C(=O)c2ccccc2)=C(OC(=O)c2ccc(Cl)cc2)c2ccccc2S1(=O)=O -0.159%
Cc1cccc(OC(C)C(=O)N2CCC(c3nc4ccccc4o3)CC2)c1C (stereo unspecified) -19.1%
CCOc1ccc(Br)cc1C1C(C(=O)Nc2ccccc2OC)=C(C)Nc2nnnn21 (stereo unspecified) -5.54%
CCc1ccc2oc(-c3cccc(NC(=O)c4ccc(-c5cccc([N+](=O)[O-])c5)o4)c3)nc2c1 -14.6%
COc1cccc(CN2c3ccccc3-c3nc(SCC(=O)Nc4cccc(C)c4)ncc3S2(=O)=O)c1 -12.4%
COc1ccc(-c2cc(C(F)(F)F)nc(NCc3ccccc3)n2)cc1OC -2.51%
CCOc1ccc(NCc2cccn2-c2nnc(N3CCC(C(=O)NC(C)c4ccccc4)CC3)s2)cc1 (stereo unspecified) -10.5%
CC1CCc2c(sc3nnn(CC(=O)Nc4cccc(C(F)(F)F)c4)c(=O)c23)C1 (stereo unspecified) -11.6%
COc1ccc(-n2c(=O)c3c4c(sc3n(Cc3ccccc3)c2=O)CCC4)c(OC)c1 -8.84%
CC(=O)N1c2ccc(S(=O)(=O)NCCc3cccc(C)c3)cc2CC1C (stereo unspecified) -6.04%
Cc1oc(-c2ccc(C(=O)N(C)Cc3ccccc3)cc2)nc1CN1CCc2ccccc21 -31.8%
CCOC(=O)c1cccc(NC(=O)N2Cc3ccccc3Oc3ncccc32)c1 -33.5%
CCn1c(=O)c(=O)n(CC)c2cc(N3CCCCC3)c(NC(=O)c3cccc(OC)c3)cc21 -20.3%
CCOc1cccc(NC(=O)CSc2ncc(-c3ccc(Cl)cc3)[nH]2)c1 -14%
CCN(C(=O)c1cc(S(=O)(=O)N2CCCCC2)c[nH]1)c1ccc(OC)cc1 1.42%
CCOC(=O)c1ccc(-c2ccc(/C=C(\C#N)C(=O)Nc3cccc(C)c3)o2)cc1 -9.05%
Cc1ccc(NC(=O)CC2Sc3ccccc3NC2=O)c(C)c1 (stereo unspecified) -3.32%
CC1(C)OC(=O)NC1=O -19.4%
CCOc1ccc(-n2c(-c3ccc(OC)cc3)cc3c2CC(C)(C)CC3=O)cc1 -1.87%
C=Cc1ccc(CSc2nc(-c3ccc(Cl)cc3)nc3c2Cc2c(CO)cnc(C)c2O3)cc1 -9.42%
Cc1cccc(C)c1NC(=O)C1CCN(S(=O)(=O)c2cccc3nsnc23)CC1 -26.6%
Cn1c(NCc2ccccc2F)nc2ccccc21 -13%
COc1cc(Cl)c(C)cc1NC(=O)CSCc1nc(-c2ccc(OC)c(OC)c2)no1 -13.2%
Cc1ccc(C)c(Cn2cc(CCC(=O)NC3CCCCC3)c3ccccc32)c1 1.71%
CCOc1ccccc1C(=O)N1CCc2cc(OC)c(OC)cc2C1COc1ccc2c(C)cc(=O)oc2c1 (stereo unspecified) -10.9%
Cc1ccc(-n2ncc3c(Nc4ccc5c(c4)OCCO5)ncnc32)cc1C -23.2%
COc1ccc(CNC(=O)c2cnn(-c3ccc(C)cc3)c2C2CCN(C(=O)OC(C)(C)C)CC2)cc1 -46.7%
COc1ccc(-c2nc(SCC(=O)NC3CCCC3)c(-c3ccccc3)[nH]2)cc1OC -21.7%
CCOC(=O)C1CCN(C(=O)c2ccc3c(c2)sc2nc(-c4ccc(OCC)cc4)cn23)CC1 -14.5%
Cc1ccc(NC(=O)Cn2ccn(Cc3ccc(Cl)cc3)c(=O)c2=O)cc1C -12.8%
COc1ccc(OC)c(Nc2cc(C(=O)NCc3ccccc3)c3ccccc3n2)c1 22.2%
CC(=O)c1cccc(-n2c(CCC(=O)O)ccc2-c2ccccc2)c1 -2.78%
CCN1CCN(C(c2ccc(Cl)cc2)c2c(O)cc(C)n(CCOC)c2=O)CC1 (stereo unspecified) -12.5%
Cc1nc2ncnn2c(C)c1CCC(=O)NCc1ccc(Cl)cc1 -15.2%
O=C(CSc1ncc(S(=O)(=O)c2ccc(Br)cc2)c(=O)[nH]1)NCc1ccccc1Cl -13.4%
CCOc1ccc(NC(=O)NC(CC)Cn2nnc3ccccc3c2=O)cc1 (stereo unspecified) 13.3%
Cc1ccc(OCCSc2nc3ccccc3n2CCC(=O)O)cc1C -10.3%
COc1ccc(/C=C(\NC(=O)c2ccccc2)C(=O)NC2CCCCC2)cc1 -5.58%
Cc1cc(C)cc(N(CC(=O)Nc2ccc(C(F)(F)F)cc2)S(=O)(=O)c2c(C)[nH]c(=O)[nH]c2=O)c1 -13.8%
CCCCn1cnc2cc(NC(=O)c3cc(OC)c(OC)c(OC)c3)ccc21 -23.1%
CCCC(=O)N(c1ccc2oc3c(c2c1)CCCC3)S(=O)(=O)c1ccc(CC)cc1 -18.5%
COc1cccc(CNC(=O)C2CCC(CNS(=O)(=O)c3cccs3)CC2)c1 (stereo unspecified) -11.5%
O=c1c(S(=O)(=O)c2ccccc2)cn(Cc2ccc(F)cc2)c2cc(N3CCCC3)c(F)cc12 -10.1%
COc1ccc(NCc2nc3ccccc3n2CCOc2ccccc2C)cc1 -7.36%
Cc1ccccc1NC(=O)c1ccc(NC(=O)N2CCSc3ncccc32)cc1 -14.4%
COc1ccc(OC)c(-n2c(=O)[nH]c3cc(C(=O)NCCc4ccc(OC)c(OC)c4)ccc3c2=O)c1 2.18%
CC1CCN(S(=O)(=O)c2ccc3c(c2)N(CC(=O)NCc2ccccc2Cl)C(=O)CO3)CC1 3.38%
COc1cccc(NC(=O)c2sc(-n3nc(C)c(Cc4ccccc4Cl)c3C)nc2C)c1 -2.76%
Cc1ccc(CNS(=O)(=O)c2ccc(F)c(C(=O)Nc3ccc(C)c(F)c3)c2)cc1 -17.8%
Cc1ccc(N(C)C(=O)Cn2nc(Cc3ccncc3)c3ccccc3c2=O)cc1C 2.24%
COCCn1c(C)cc(O)c(C(c2ccccc2)N2CCN(c3ccc(F)cc3)CC2)c1=O (stereo unspecified) 8.74%
COC(=O)c1c(SC)nc2ccccc2c1OCc1cccc(C)c1 -10%
O=C(NCCS(=O)(=O)N1CCN(c2ccccc2F)CC1)c1cc(=O)c2ccccc2o1 -2.17%
O=C(Nc1ccc(F)cc1)c1ccc(-n2cnc3cccnc32)cc1 -30.4%
O=C(NCCc1ccc(Cl)cc1)c1ccc(CS(=O)(=O)Cc2ccc(F)cc2)o1 -14.5%
CCC(CC)C(=O)Nc1cccc(-c2nc3cccnc3s2)c1 -6.58%
COc1cccc(COC(=O)c2nn(-c3ccccc3)nc2N)c1 8.15%
Cc1ccc(CNC(=O)C2CCN(c3nn4cc(-c5ccc(F)cc5)nc4s3)CC2)cc1 -11%
CCOC(=O)c1[nH]c(C)c(CCC(=O)Nc2cc(Cl)ccc2C)c1C -10.3%
